Substitutions are numbered along the chain they refer to; changes in the protein carry UniProt numbers. This is one part of the list.
T1: RBFOX1 RRM (Homo sapiens, UniProt Q9NWB1 109-208)
T1 sequence: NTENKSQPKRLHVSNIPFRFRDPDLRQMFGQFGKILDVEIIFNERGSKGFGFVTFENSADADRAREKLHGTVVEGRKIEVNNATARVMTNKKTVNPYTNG

B1: CAACCGU (DNA:RNA)
RNA: GGGAGACCGGAAUUCAGAUUGUCCCAACCGUUUAAAUCCCGUCGUAGCCACCA
DNA 1: CAATCTGAATTCCGGTCTCCC
DNA 2: TGGTGGCTACGACGGGATT
B2: CGUCAAU (DNA:RNA)
RNA: B1 RNA with A26G, A27U, C29A, G30A
DNA 1: CAATCTGAATTCCGGTCTCCC
DNA 2: TGGTGGCTACGACGGGATT
B3: CUAUGCA (DNA:RNA)
RNA: B1 RNA with A26U, C28U, C29G, G30C, U31A
DNA 1: CAATCTGAATTCCGGTCTCCC
DNA 2: TGGTGGCTACGACGGGATT
B4: CGCCUGG (DNA:RNA)
RNA: B1 RNA with A26G, A27C, C29U, U31G
DNA 1: CAATCTGAATTCCGGTCTCCC
DNA 2: TGGTGGCTACGACGGGATT
B5: AGUUGAA (DNA:RNA)
RNA: GGGAGACCGGAAUUCAGAUUGUCCAGUUGAAUUAAAUCCCGUCGUAGCCACCA
DNA 1: CAATCTGAATTCCGGTCTCCC
DNA 2: TGGTGGCTACGACGGGATT
B6: ACAACCG (DNA:RNA)
RNA: B1 RNA with C25A, A26C, C28A, G30C, U31G
DNA 1: CAATCTGAATTCCGGTCTCCC
DNA 2: TGGTGGCTACGACGGGATT
B7: UGGAAAU (DNA:RNA)
RNA: B5 RNA with A25U, U27G, U28A, G29A, A31U
DNA 1: CAATCTGAATTCCGGTCTCCC
DNA 2: TGGTGGCTACGACGGGATT
B8: UCCGUAC (DNA:RNA)
RNA: B5 RNA with A25U, G26C, U27C, U28G, G29U, A31C
DNA 1: CAATCTGAATTCCGGTCTCCC
DNA 2: TGGTGGCTACGACGGGATT
B9: CAGAGUA (DNA:RNA)
RNA: B5 RNA with A25C, G26A, U27G, U28A, A30U
DNA 1: CAATCTGAATTCCGGTCTCCC
DNA 2: TGGTGGCTACGACGGGATT
B10: UUUGGUC (DNA:RNA)
RNA: B5 RNA with A25U, G26U, U28G, A30U, A31C
DNA 1: CAATCTGAATTCCGGTCTCCC
DNA 2: TGGTGGCTACGACGGGATT
B11: UUCCUCA (DNA:RNA)
RNA: B5 RNA with A25U, G26U, U27C, U28C, G29U, A30C
DNA 1: CAATCTGAATTCCGGTCTCCC
DNA 2: TGGTGGCTACGACGGGATT
B12: CAAUCGA (DNA:RNA)
RNA: B1 RNA with C28U, U31A
DNA 1: CAATCTGAATTCCGGTCTCCC
DNA 2: TGGTGGCTACGACGGGATT
B13: AGUGCGC (DNA:RNA)
RNA: B5 RNA with U28G, G29C, A30G, A31C
DNA 1: CAATCTGAATTCCGGTCTCCC
DNA 2: TGGTGGCTACGACGGGATT
B14: UGGACGU (DNA:RNA)
RNA: B1 RNA with C25U, A26G, A27G, C28A
DNA 1: CAATCTGAATTCCGGTCTCCC
DNA 2: TGGTGGCTACGACGGGATT
B15: UUGCCUC (DNA:RNA)
RNA: B1 RNA with C25U, A26U, A27G, G30U, U31C
DNA 1: CAATCTGAATTCCGGTCTCCC
DNA 2: TGGTGGCTACGACGGGATT
B16: UAGUUUA (DNA:RNA)
RNA: B5 RNA with A25U, G26A, U27G, G29U, A30U
DNA 1: CAATCTGAATTCCGGTCTCCC
DNA 2: TGGTGGCTACGACGGGATT
B17: GGCUGGC (DNA:RNA)
RNA: B5 RNA with A25G, U27C, A30G, A31C
DNA 1: CAATCTGAATTCCGGTCTCCC
DNA 2: TGGTGGCTACGACGGGATT
B18: CCCCUGA (DNA:RNA)
RNA: B1 RNA with A26C, A27C, C29U, U31A
DNA 1: CAATCTGAATTCCGGTCTCCC
DNA 2: TGGTGGCTACGACGGGATT
B19: GUUAGGG (DNA:RNA)
RNA: B5 RNA with A25G, G26U, U28A, A30G, A31G
DNA 1: CAATCTGAATTCCGGTCTCCC
DNA 2: TGGTGGCTACGACGGGATT
B20: AACAUUG (DNA:RNA)
RNA: B5 RNA with G26A, U27C, U28A, G29U, A30U, A31G
DNA 1: CAATCTGAATTCCGGTCTCCC
DNA 2: TGGTGGCTACGACGGGATT

The binders below were run against T1, RBFOX1 RRM (assay: EMSA; HiTS-Eq, 1 nM pool, 10 min; buffer printed only for the single-RNA assays: 10 mM Tris pH 7.5, 150 mM NaCl, 3.4 mM EDTA, 0.001% NP-40, 30 C). Details: tags: His6 N-terminal (pET28a); label: 5' 32P.
Outline: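 Purified RbFox RRM (wild type or mutant) was equilibrated for 10 min in 50 µL with 1 nM of a 5′-radiolabelled pool of RNA with 7 randomized nucleotides, its flanks annealed to DNA oligonucleotides, across increasing protein concentrations. Free RNA was separated by 8% native PAGE, excised, reverse-transcribed, PCR-barcoded and sequenced on an Illumina HiSeq 2500. Relative association constants came from read-count changes of each variant against the control reaction, normalised to the cognate motif.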

Row | Binder | binding signal
1 | B1 | 0.00135 KA relative to UGCAUGU
2 | B2 | 0.00291 KA relative to UGCAUGU
3 | B3 | 0.0127 KA relative to UGCAUGU
4 | B4 | 0.0272 KA relative to UGCAUGU
5 | B5 | 0.0178 KA relative to UGCAUGU
6 | B6 | 0.000637 KA relative to UGCAUGU
7 | B7 | 0.0171 KA relative to UGCAUGU
8 | B8 | 0.00621 KA relative to UGCAUGU
9 | B9 | 0.00335 KA relative to UGCAUGU
10 | B10 | 0.0248 KA relative to UGCAUGU
11 | B11 | 0.00418 KA relative to UGCAUGU
12 | B12 | 0.00345 KA relative to UGCAUGU
13 | B13 | 0.0166 KA relative to UGCAUGU
14 | B14 | 0.0265 KA relative to UGCAUGU
15 | B15 | 0.017 KA relative to UGCAUGU
16 | B16 | 0.0102 KA relative to UGCAUGU
17 | B17 | 0.0165 KA relative to UGCAUGU
18 | B18 | 0.00552 KA relative to UGCAUGU
19 | B19 | 0.00439 KA relative to UGCAUGU
20 | B20 | 0.006 KA relative to UGCAUGU
